Assay results taken from PubChem BioAssay AID504333 (National Center for Advancing Translational Sciences (NCATS), 2011).
The whole screen tested about 360,000 compounds, of which about 16,000 (4.4%) were called active. Inconclusive results, whose numbers are uncertain, are shown with a selection of clear calls. The call rests on the fitted dose curve; in most records, active means well fitted inhibition curve with a large enough effect; inconclusive means small, poorly fitted or top-dose-only effect; inactive means no such curve, though single readings can be large or run the other way. A potency beside an inconclusive call is a rough fit, not a confirmed value.

The molecules below were run against Bromodomain adjacent to zinc finger domain protein 2B (Homo sapiens) (UniProt Q9UIF8) (assay: qHTS Assay for Inhibitors of BAZ2B). Conditions: AlphaScreen BAZ2B-H3K14Ac peptide displacement; activity change, negative = inhibition: at 114 µM (top of the series).
In short: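 Multi-concentration screen (max 110 uM) measuring displacement of acetylated histone H3 peptide from BAZ2B by AlphaScreen, using 50 nM protein, 50 nM peptide and 10 ug/mL streptavidin donor plus Ni-chelate acceptor beads.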
Further: nearly all actives have a fitted effect of over 60% in size.
On the % scale 0 is the no-effect control and ±100 the full control effect; potency means the concentration at half of the fitted maximal effect; tags describe the fitted curve by direction and shape.

UniProt Q9UIF8, sequence (Q9UIF8 whole entry, looked up, the tested form may be a part): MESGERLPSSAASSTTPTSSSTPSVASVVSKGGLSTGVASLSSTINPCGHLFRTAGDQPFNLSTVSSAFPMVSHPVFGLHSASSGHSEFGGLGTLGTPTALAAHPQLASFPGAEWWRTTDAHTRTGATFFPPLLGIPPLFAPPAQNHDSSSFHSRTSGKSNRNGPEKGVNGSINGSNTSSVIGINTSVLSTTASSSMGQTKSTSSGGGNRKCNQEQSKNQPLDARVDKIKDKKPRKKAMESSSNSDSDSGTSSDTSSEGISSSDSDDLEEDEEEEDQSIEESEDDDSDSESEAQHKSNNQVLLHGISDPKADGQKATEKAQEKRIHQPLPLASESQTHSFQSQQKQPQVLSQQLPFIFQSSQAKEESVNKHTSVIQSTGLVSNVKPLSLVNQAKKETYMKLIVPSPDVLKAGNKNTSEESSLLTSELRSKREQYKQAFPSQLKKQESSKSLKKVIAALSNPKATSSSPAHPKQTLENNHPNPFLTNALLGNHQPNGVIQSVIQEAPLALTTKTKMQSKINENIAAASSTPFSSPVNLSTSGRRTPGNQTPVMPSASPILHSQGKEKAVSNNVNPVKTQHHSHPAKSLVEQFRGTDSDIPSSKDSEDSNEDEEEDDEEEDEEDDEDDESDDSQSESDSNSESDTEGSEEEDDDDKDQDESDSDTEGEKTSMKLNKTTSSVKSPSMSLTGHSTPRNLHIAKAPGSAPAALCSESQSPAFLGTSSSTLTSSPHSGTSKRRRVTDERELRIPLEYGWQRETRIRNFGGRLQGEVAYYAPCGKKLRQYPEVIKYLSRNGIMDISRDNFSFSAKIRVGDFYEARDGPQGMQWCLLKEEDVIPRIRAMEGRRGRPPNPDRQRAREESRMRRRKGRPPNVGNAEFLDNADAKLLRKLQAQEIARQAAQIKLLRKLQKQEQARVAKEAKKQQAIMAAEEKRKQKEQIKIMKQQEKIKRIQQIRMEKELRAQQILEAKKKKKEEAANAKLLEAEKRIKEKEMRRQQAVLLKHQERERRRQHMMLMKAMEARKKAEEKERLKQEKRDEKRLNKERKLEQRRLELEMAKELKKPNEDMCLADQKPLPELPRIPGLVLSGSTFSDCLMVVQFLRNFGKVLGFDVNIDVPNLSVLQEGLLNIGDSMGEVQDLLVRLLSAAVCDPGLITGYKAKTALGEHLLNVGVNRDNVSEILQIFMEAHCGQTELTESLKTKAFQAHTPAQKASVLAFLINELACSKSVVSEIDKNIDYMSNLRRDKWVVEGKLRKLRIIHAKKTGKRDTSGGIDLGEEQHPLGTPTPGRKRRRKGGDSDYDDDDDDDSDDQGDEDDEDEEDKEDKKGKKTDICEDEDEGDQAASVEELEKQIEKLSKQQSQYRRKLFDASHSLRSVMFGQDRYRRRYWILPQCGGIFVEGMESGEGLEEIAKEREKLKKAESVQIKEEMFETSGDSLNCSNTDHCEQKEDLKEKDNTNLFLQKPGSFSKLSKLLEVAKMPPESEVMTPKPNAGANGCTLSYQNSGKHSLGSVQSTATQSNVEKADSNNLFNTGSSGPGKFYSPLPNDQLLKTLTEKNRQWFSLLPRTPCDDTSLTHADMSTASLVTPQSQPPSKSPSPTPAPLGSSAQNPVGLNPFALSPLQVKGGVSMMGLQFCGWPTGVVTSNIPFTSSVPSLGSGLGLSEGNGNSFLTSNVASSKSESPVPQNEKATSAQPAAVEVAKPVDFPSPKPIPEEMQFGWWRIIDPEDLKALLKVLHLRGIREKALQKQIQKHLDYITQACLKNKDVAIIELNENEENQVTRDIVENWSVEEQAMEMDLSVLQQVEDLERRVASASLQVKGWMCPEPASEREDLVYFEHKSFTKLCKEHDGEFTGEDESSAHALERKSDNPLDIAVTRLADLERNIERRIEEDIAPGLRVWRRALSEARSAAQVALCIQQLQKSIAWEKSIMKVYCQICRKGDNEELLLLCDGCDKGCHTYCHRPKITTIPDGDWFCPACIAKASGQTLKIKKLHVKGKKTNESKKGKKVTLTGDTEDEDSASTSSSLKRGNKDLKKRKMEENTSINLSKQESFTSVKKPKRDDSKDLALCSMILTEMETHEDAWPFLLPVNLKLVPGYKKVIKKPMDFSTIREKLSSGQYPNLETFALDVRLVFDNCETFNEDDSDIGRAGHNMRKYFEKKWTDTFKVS

Compound	Potency	activity change, negative = inhibition
CC1CCCN(S(=O)(=O)c2cc3c(cc2Cl)NC(=O)CO3)C1 (stereo unspecified)	inactive	–
COc1cc(OC)c(Nc2nc3ccc(C)cc3n3nnnc23)cc1Cl	inactive	–
Cc1ccc(CNc2ccc3c(c2)OCO3)c(C)c1	active: 44.7 µM	–
O=C1c2cccc3c([N+](=O)[O-])ccc(c23)C(=O)N1Cc1cccnc1	active: 39.8 µM	–
O=C(CCC(=O)N1CC2CCCN2c2ccccc21)NCc1ccccc1Cl (stereo unspecified)	inconclusive: 50.1 µM [inhibitor, partial curve]	–
O=C(O)CC(NS(=O)(=O)c1c(F)cc(F)cc1Br)c1ccccc1Cl (stereo unspecified)	inactive	–
CCCCN1C(=O)C(C)=C(C)C1OCCc1ccc(OC)c(OC)c1 (stereo unspecified)	inactive	–
S=C(NCc1ccc2[nH]c3c(c2c1)CCCC3)Nc1ccccc1	active: 31.6 µM	–
O=C(/C=C/c1ccco1)NC(=S)Nc1ccccc1O	active: 39.8 µM	–
CCOC(=O)N1CCc2c(sc3c2c(=O)n(CCc2ccccc2)c(=O)n3Cc2cc(C)ccc2C)C1	inconclusive: 89.1 µM [inhibitor, single point]	–
COCCNC(=O)Cn1cc(S(=O)(=O)Cc2ccccc2Cl)c2ccccc21	inactive	–
Cc1ccc(-c2nc3ccccc3[nH]2)cc1NC(=O)/C=C/c1ccco1	active: 50.1 µM	–
O=C(O)C1CC=CCC1C(=O)N1CCc2ccccc21 (stereo unspecified)	inconclusive: 89.1 µM [inhibitor, single point]	–
C/C(=C\c1ccccc1)CN1CCN(C)CC1	–	inconclusive: -92.8% [inhibitor]
S=C(NCCCN1CCOCC1)N1CCN(c2nc(-c3ccccc3)cs2)CC1	inconclusive: 56.2 µM [inhibitor, partial curve]	–
CC(=O)c1ccc(NC(=S)NC(=O)/C=C/c2ccco2)cc1	inconclusive: 70.8 µM [inhibitor, single point]	–
O=S(=O)(c1ccccc1)c1nc(-c2ccco2)oc1N1CCCCCC1	active: 39.8 µM	–
Cc1cccc2c1N(CCCOc1ccccc1)C(=O)C2=O	inconclusive: 70.8 µM [inhibitor, single point]	–
CCOc1ccc(NS(=O)(=O)c2ccc(N)cc2)cc1	inactive	–
Cc1ccc(/C=N/NC(=O)Cc2ccc(Cl)cc2)s1	inconclusive: 89.1 µM [inhibitor, single point]	–
CCCn1nnnc1NC(=O)c1ccc(C)cc1Cl	active: 56.2 µM	–
Cc1sc2nc[nH]c(=S)c2c1-c1ccccc1	inactive	–
COc1cc(O)c(C(CCN2CCN(c3ccccc3)CC2)c2ccc3c(c2)OCO3)c(OC)c1 (stereo unspecified)	active: 10 µM	–
C#CCOC(=O)CN1C(=O)c2cccc3cccc(c23)C1=O	inactive	–
COc1cc(/C=C2\SC(=O)N(CC(=O)Nc3cccc(C)c3)C2=O)cc([N+](=O)[O-])c1O	active: 39.8 µM	–
CCCC(=O)Nc1ccc(NCc2ccc(C)s2)cc1	inconclusive: 89.1 µM [inhibitor, single point]	–

Compound	Potency	activity change, negative = inhibition
COC(=O)c1sc2ccccc2c1-n1cccc1C(=O)C(=O)Nc1ccc(C)cc1	inconclusive: 70.8 µM [inhibitor, single point]	–
Cc1ccccc1CCNC(=O)c1ccc2c(c1)c(C)c(C)n2C	inconclusive: 31.6 µM [inhibitor, full curve]	–
COc1ccccc1CNC(=O)CCn1c(=O)c2ccccc2n(CC(=O)Nc2ccc(C)cc2)c1=O	inconclusive: 89.1 µM [inhibitor, single point]	–
CCN1CCN(c2nc(Nc3cc(OC)ccc3OC)nc(Nc3cc(OC)ccc3OC)n2)CC1	inconclusive: 2.51 µM [inhibitor, partial curve, poor fit]	–
CS(=O)(=O)Nc1nc2n(n1)C(c1ccccc1)C=C(c1ccc(Br)cc1)N2 (stereo unspecified)	inactive	–
Cc1nc2c3cc(F)ccc3n(Cc3ccccc3)c2s1	inconclusive: 50.1 µM [inhibitor, partial curve]	–
Cn1cccc1/C=C1\SC(=S)N(NC(=O)c2ccc(F)cc2)C1=O	active: 35.5 µM	–
O=C(c1cccs1)N1CCc2c([nH]c3ccccc23)C1c1ccccn1 (stereo unspecified)	inconclusive: 44.7 µM [inhibitor, partial curve]	–
CC(=O)N/C(=C\c1ccccc1)C(=O)OCC(=O)Nc1cc(S(=O)(=O)N(C)C)ccc1Cl	inactive	–
O=S(=O)(c1cccc2nonc12)N1CCN(c2cccc(Cl)c2)CC1	active: 50.1 µM	–
N#CC1=C(N)Oc2cc(N)ccc2C1c1ccccc1F (stereo unspecified)	inactive	–
CCCCOc1ccc(OC(=O)c2sc3ncn(Cc4cccc(F)c4)c(=O)c3c2C)cc1	inactive	–
CC1=NN(c2ccccc2)C(=O)/C1=C/c1cccc(C)c1	inconclusive: 50.1 µM [inhibitor, partial curve]	–
Cc1nn(CC(=O)NCCc2ccco2)c(=O)c2nn(-c3ccccc3)c(C)c12	inconclusive: 50.1 µM [inhibitor, partial curve]	–
Cc1ccc(C)c(-c2nnc(NC(=O)c3ccc([N+](=O)[O-])o3)o2)c1	inconclusive: 89.1 µM [inhibitor, single point]	–
COc1ccc(C2=NN(CN3C(=O)C(=O)c4ccccc43)C(c3ccc(C)cc3)C2)cc1 (stereo unspecified)	inconclusive: 28.2 µM [inhibitor, partial curve]	–
CN(C)CCCN(C(=O)COc1ccccc1)c1nc2c(Cl)cccc2s1	inconclusive: 100 µM [inhibitor, single point]	–
O=c1[nH]c(-c2ccc(F)cc2)nc2c1sc(=S)n2-c1ccccc1	active: 50.1 µM	–
CC(C(=O)Nc1ccccc1)c1ccc(-c2ccccc2)c(F)c1 (stereo unspecified)	inconclusive: 10 µM [inhibitor, single point]	–
Cn1cc(CN2CCC(n3nccc3NC(=O)c3ccccc3Cl)CC2)c2ccccc21	inconclusive: 70.8 µM [inhibitor, partial curve]	–
COC(=O)C1=C(C(=O)OC)SC2(S1)C(C(=O)OC)=C(C(=O)OC)SC1=C2c2cccc(C)c2NC1(C)C	inconclusive: 44.7 µM [inhibitor, partial curve]	–
Cc1csc(NC(=O)CSc2sc3c(O)cc(=O)[nH]c3c2C#N)n1	inconclusive: 56.2 µM [inhibitor, partial curve, poor fit]	–
CC(/C=N/n1c(-c2cccnc2)n[nH]c1=S)=C\c1ccccc1	inconclusive: 25.1 µM [inhibitor, partial curve, poor fit]	–
COCCn1c(C)cc(C(=O)COC(=O)c2cc3c(s2)CCC3)c1C	active: 39.8 µM	–
O=[N+]([O-])c1ccc(/C=N/Nc2nc(N3CCCCCC3)nc(N3CCCCCC3)n2)o1	inconclusive: 35.5 µM [inhibitor, partial curve]	–
COc1ccc(OCC(=O)NCCCCCCNC(=O)COc2ccc(OC)cc2)cc1	inactive	–

Compound	Potency	activity change, negative = inhibition
Cc1cc2c3c(c1C)C(=O)C(=O)N3C(C)(C)CC2C (stereo unspecified)	inconclusive: 12.6 µM [inhibitor, full curve]	–
CCC1(C)NC(=O)N(CC(=O)Nc2sc3c(c2C(=O)OC)CCCCC3)C1=O (stereo unspecified)	inactive	–
Cc1ccc(-c2nc3n(n2)C(c2ccccc2C)C=C(c2ccc(Cl)cc2)N3)cc1 (stereo unspecified)	inactive	–
COc1cc(C(=O)NCC(c2ccc(N(C)C)cc2)N2CCc3ccccc32)cc(OC)c1OC (stereo unspecified)	active: 12.6 µM	–
COc1ccc(NC(C(=O)Nc2cccc(C(C)=O)c2)c2ccccc2)cc1 (stereo unspecified)	active: 50.1 µM	–
Cc1ccc(CN2COc3c(Cl)cc4c(-c5ccccc5)cc(=O)oc4c3C2)cc1	inactive	–
COc1ccc(C(=O)CSc2cc(C)[nH]c(=O)n2)cc1	active: 50.1 µM	–
CC1CCCCN1C(=O)Cn1cnc2cc([N+](=O)[O-])ccc2c1=O (stereo unspecified)	inconclusive: 79.4 µM [inhibitor, single point]	–
Cn1cccc1C(=O)Nc1nc(-c2ccccn2)cs1	active: 17.8 µM	–
O=C(N/N=C/c1ccccc1)C(=O)N/N=C/c1ccccc1	inactive	–
O=C(Nc1cc(Cl)cc(Cl)c1)c1ccc(F)c(S(=O)(=O)N2CCN(c3ccccc3F)CC2)c1	inactive	–
COc1cccc(Nc2nc(-c3sc(NC(=O)CC(C)C)nc3C)cs2)c1	inconclusive: 50.1 µM [inhibitor, partial curve]	–
CC1CC(c2ccccc2)n2nc(NC(=O)c3ccco3)nc2N1 (stereo unspecified)	inconclusive: 89.1 µM [inhibitor, single point]	–
CC(=O)c1ccc(N2CCN(c3ncnc4c3cnn4-c3cc(Cl)ccc3C)CC2)cc1	inactive	–
COc1ccccc1N1CCN(C2CCCN(C(=O)CCC(C)=O)C2)CC1 (stereo unspecified)	inactive	–
CCOc1ccccc1NC(=O)c1c(NC(=O)Cc2ccc(OC)cc2)sc2c1CCC2	inactive	–
CCc1cccc(NC(=O)c2ccc3c(c2)c(C)c(C)n3Cc2ccc(F)cc2)c1	inactive	–
C=CCOC(=O)C1=C[C@H](c2cn(C(C)=O)c3ccccc23)C[C@H](OCc2ccc(CO)cc2)O1	inactive	–
CC(=O)c1cccc(NC(=O)CN2C(=O)C(=O)N(Cc3ccco3)C2=O)c1	inconclusive: 89.1 µM [inhibitor, single point]	–
C=CCn1c(-c2ccoc2)n[nH]c1=S	inconclusive: 89.1 µM [inhibitor, single point]	–
NC(=S)N/N=C/c1c[nH]c2ccccc12	inconclusive: 50.1 µM [inhibitor, partial curve]	–
CCCN(CCC)c1ccc(CC(=O)NC(C)Cc2ccccc2)cc1 (stereo unspecified)	inconclusive: 20 µM [inhibitor, full curve]	–
CC1CCN(C2CC(=O)N(c3ccccc3)C2=O)CC1 (stereo unspecified)	inactive	–
O=C(NC(=S)NCCN1CCOCC1)c1cccc(Cl)c1	inconclusive: 79.4 µM [inhibitor, partial curve]	–
